Test results from PMC4336329 (PLoS ONE, 2015).
Out of some 310,000 compounds screened, about 2,200 (0.71%) showed an effect of 50% or more. Effects have a minus sign here. The list shows a part of the results.

Target: human ether-à-go-go-related gene (hERG) potassium channel (human, UniProt Q12809)
Assay: primary screen, population patch clamp on CHO cells stably expressing hERG

Chain of human ether-à-go-go-related gene (hERG) potassium channel (Q12809 whole entry, looked up): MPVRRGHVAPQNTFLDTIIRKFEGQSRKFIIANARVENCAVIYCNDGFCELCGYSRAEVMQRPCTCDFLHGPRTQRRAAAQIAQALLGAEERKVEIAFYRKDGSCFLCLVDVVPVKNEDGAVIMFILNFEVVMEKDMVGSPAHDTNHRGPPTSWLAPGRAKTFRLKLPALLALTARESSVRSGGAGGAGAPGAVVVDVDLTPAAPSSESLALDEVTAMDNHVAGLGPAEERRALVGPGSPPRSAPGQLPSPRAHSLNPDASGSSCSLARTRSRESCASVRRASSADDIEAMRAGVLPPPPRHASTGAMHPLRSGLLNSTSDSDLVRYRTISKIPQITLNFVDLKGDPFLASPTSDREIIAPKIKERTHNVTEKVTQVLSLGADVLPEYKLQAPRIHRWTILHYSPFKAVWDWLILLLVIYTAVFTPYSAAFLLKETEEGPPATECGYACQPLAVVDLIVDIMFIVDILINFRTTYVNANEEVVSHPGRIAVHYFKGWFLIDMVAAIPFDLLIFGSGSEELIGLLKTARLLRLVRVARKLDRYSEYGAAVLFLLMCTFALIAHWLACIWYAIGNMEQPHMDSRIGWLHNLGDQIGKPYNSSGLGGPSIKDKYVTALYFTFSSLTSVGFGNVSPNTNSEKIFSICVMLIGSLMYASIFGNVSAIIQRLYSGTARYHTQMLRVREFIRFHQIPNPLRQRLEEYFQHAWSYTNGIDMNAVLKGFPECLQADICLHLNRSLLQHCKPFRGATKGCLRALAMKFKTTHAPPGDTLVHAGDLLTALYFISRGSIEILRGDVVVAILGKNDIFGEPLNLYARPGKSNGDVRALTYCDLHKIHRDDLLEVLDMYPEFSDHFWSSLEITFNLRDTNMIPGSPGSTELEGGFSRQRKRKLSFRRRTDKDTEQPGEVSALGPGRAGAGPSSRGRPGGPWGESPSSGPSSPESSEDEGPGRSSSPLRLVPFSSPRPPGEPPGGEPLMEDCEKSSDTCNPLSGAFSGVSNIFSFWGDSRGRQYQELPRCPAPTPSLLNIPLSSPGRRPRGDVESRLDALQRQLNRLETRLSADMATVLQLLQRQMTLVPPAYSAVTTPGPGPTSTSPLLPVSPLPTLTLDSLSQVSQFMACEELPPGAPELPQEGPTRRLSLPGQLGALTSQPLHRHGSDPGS

Row | Compound | hERG current change (%, negative = inhibition) at 1uM
1 | COc1cccc(C(=O)Oc2cc(-c3ccccc3)no2)c1 | 10.8%
2 | CCc1ccc(C(=O)COC(=O)CNC(=O)c2ccco2)cc1 | -0.561%
3 | COc1cc(CNCc2cccnc2)ccc1OCC(=O)NC1CCCCC1.Cl | 15.5%
4 | COc1ccc(/C=N/n2c(N)nc3ccccc32)cc1OC | 6.11%
5 | Cc1ccc(NC(=O)Cn2nc(-c3ccccc3)nc2-c2ccccc2)c(C)c1 | 15.7%
6 | Cc1coc2c1c(C)cc1oc(=O)c(CC(=O)NCCCCCC(=O)O)c(C)c12 | 18.8%
7 | C=CCOc1ccc(/C=C2\SC(=S)N(NS(=O)(=O)c3ccccc3)C2=O)cc1 | 14.6%
8 | C=CCn1c(SCC(=O)Nc2sccc2C(N)=O)nc2sc(C)c(C)c2c1=O | 18.3%
9 | Cc1cccc(-c2cc(C(=O)Nc3ccc4c(c3)OCCO4)c3ccccc3n2)c1 | -5.55%
10 | CCC(=O)Nc1cccc(C(=O)OCC(=O)c2ccccc2Cl)c1 | -2.05%
11 | O=C1CC(c2ccccc2)CC(=O)C1Sc1ccc(Cl)cc1 (centres unmarked) | -6.9%
12 | CCOc1ccc(C(=O)NC2CCN(C(=S)Nc3ccccc3C)CC2)cc1 | 17.1%
13 | CCC(=O)N1CCc2cc(S(=O)(=O)NC(C(=O)NCc3ccc(F)cc3)C(C)C)ccc21 (centres unmarked) | 12.9%
14 | O=C1N=C(c2ccccc2)S/C1=C\c1cccs1 | 11.2%
15 | O=C(NN=C1CCCCCC1)c1ccncc1 | 15.9%
16 | CCOC(=O)C1CCCN(C(=O)CN2C(=O)c3ccccc3C2=O)C1 (centres unmarked) | 4.34%
17 | c1ccc(-c2nc(C3CCCCC3)c3sccc3n2)cc1 | 14.4%
18 | CCn1c(SCc2c(Cl)cccc2Cl)nnc1-c1nn(-c2ccccc2)ccc1=O | -18.1%
19 | Cc1ccc(C#N)c(SCc2cc3c(cc2Cl)OCO3)n1 | 17.4%
20 | CCC1CCCCN1S(=O)(=O)c1ccc2[nH]c(=O)ccc2c1 (centres unmarked) | -20.1%
21 | O=C(O)c1ccccc1-c1ccccc1C(=O)NCCc1ccccc1 | 7.84%

Row | Compound | hERG current change (%, negative = inhibition) at 1uM
22 | C=CCSc1nnc2c(n1)OC(c1c(C)[nH]n(-c3ccccc3)c1=O)Nc1ccccc1-2 (centres unmarked) | -3.51%
23 | Cc1nnc2c3ccccc3c(-c3ccc(O)cc3)nn12 | 9.5%
24 | CCCCC(=O)Nc1ccc2c(c1)OCCO2 | 18.4%
25 | COc1ccc(C(=O)Nc2ccc(Cl)cc2C(=O)N2CCOCC2)cc1 | 6.51%
26 | O=C(c1ccccc1)N1CCCCC(S(=O)(=O)c2ccccc2)C1=O (centres unmarked) | -0.735%
27 | NC(=O)CSc1nc2cc3c(cc2c(=O)n1CCCC(=O)NCc1ccc2c(c1)OCO2)OCO3 | -22.4%
28 | CC1CCCN(CC(=O)Nc2ccc(S(=O)(=O)N3CCCC3)cc2)C1 (centres unmarked) | 14%
29 | Cn1nnnc1SCC(=O)Nc1ccc2c(c1)OCCO2 | 3.18%
30 | CCOC(=O)N1CCC(NC(=O)c2cc(C(=O)NC3CCN(Cc4ccccc4)CC3)ccc2CO)CC1 | 13%
31 | Nc1nnc(SCc2ccccc2)n1-c1ccccc1 | -12.8%
32 | O=C(O)CCn1c(-c2ccccn2)nc2ccccc21 | 11.4%
33 | O=C(Nc1ccc(Cl)cc1)C1C2C=CC3(O2)C1C(=O)N(CCN1CCCCC1)C3C(=O)NC1CCCCC1 (centres unmarked) | 4.31%
34 | Cc1ccc(N(C(=O)CCC(=O)Nc2cc(C)on2)C(C(=O)NC2CCCC2)c2ccncc2)cc1 (centres unmarked) | 11.4%
35 | O=C1COc2cc(ccc2[N+](=O)[O-])Oc2ccc(cc2Cl)C(=O)CCCCO1 | 7.73%
36 | CCN1CCC2(CCNC2)C1.Cl (centres unmarked) | -8.23%
37 | CCn1c(SCC(=O)Nc2ccc(OC)cc2)nc2nc3c(cc2c1=O)CCCC3 | 4.43%
38 | COc1cc2c(cc1OC)C(c1ccccc1)CC2=O (centres unmarked) | 11.8%
39 | CCOC(=O)Cc1csc(NC(NC(=O)CC)(C(F)(F)F)C(F)(F)F)n1 | 9.22%
40 | COc1ccc(-n2cc(CN(C)Cc3n[nH]c(=O)[nH]3)c(-c3cccc(F)c3)n2)cc1 | -2.65%
41 | CCCCN(CC)CCNS(=O)(=O)c1ccc2c(c1)oc(=O)n2C | 7.36%
42 | O=C(COC(=O)CSc1ccc([N+](=O)[O-])cc1)NCc1ccco1 | 16.4%

Row | Compound | hERG current change (%, negative = inhibition) at 1uM
43 | CN(C)c1ccc(CN(C(=O)COc2ccc(Br)cc2)C2CCS(=O)(=O)C2)cc1 (centres unmarked) | 12.2%
44 | Cc1ccc(CNC(=O)CCc2nc(-c3cccs3)no2)cc1 | 5.65%
45 | CCOc1ccc(NC(=O)CN2CCN(CC(=O)Nc3ccc(Cl)c(C(F)(F)F)c3)CC2)cc1 | -6.47%
46 | CCNc1nc(SC(C)C(=O)Nc2ccccc2)nc(N2CCOCC2)n1 (centres unmarked) | 3.98%
47 | Cc1ccc(NC(=O)c2cc(=O)n(Cc3ccccc3)c(=O)[nH]2)cc1C | 22.4%
48 | O=C(c1ccc(Cl)cc1)C1CCN(C(=O)c2ccccc2)CC1 | 4.65%
49 | COc1ccc(-c2nn(-c3ccccc3)cc2/C=N/O)cc1OC | 12.7%
50 | O=C(CSc1nnc(SCc2ccc(Cl)cc2)s1)N/N=C/c1c[nH]c2ccccc12 | 5.71%
51 | Cc1ccc(CNC(=O)c2ccc(OCC3CCCO3)cc2)cc1 (centres unmarked) | 9.63%
52 | Cc1ccc(S(=O)(=O)N2CCC(C(=O)NC3CC(C)(C)NC(C)(C)C3)CC2)cc1 | 12.1%
53 | Br.Cc1cc(C)cc(OCC(=O)NN2Cc3ccccc3C2=N)c1 | 1.63%
54 | O=C(NCCN1C(=O)S/C(=C\c2cccnc2)C1=O)C1CC(=O)N(Cc2ccco2)C1 (centres unmarked) | 16.8%
55 | CC(C)n1cc(CN2CCC(n3nccc3NC(=O)Cc3ccccc3)CC2)cn1 | 13.3%
56 | NC(=O)CC(NC(=O)Cc1ccc(Br)cc1)c1ccc(NCc2ccc(F)c(F)c2)c([N+](=O)[O-])c1 (centres unmarked) | 5.75%
57 | O=C(NCc1ccco1)c1csc2c1CCCC2 | 19.4%
58 | C=C(C)Cn1c(SCC(=O)O)nnc1-c1ccc(C(C)(C)C)cc1 | 11.2%
59 | O=C(NNC(=O)c1ccc(Cl)cc1Cl)c1cccs1 | 16.3%
60 | CCN1CNC(=S)N(Cc2ccccc2)C1 | 5.82%
61 | CC(C)(C)OC(=O)N1CCC(c2c(C(=O)N3CCN(C(=O)c4ccco4)CC3)cnn2-c2ccc(F)cc2)CC1 | 8.32%
62 | CCC(C)(C)c1ccc(OCC(=O)Nc2ccncc2)cc1 | 10.5%
63 | Cc1ccc(S(=O)(=O)N2CCCOC2CNC(=O)C(=O)NCCCn2ccnc2)cc1 (centres unmarked) | 3.8%

Row | Compound | hERG current change (%, negative = inhibition) at 1uM
64 | Cc1ccc(NC(=O)c2ccc(Cl)c(N3C(=O)C=CC3=O)c2)cc1 | -2.61%
65 | CC(=O)Nc1cc(O)cc(O)c1 | 4.15%
66 | Nc1c(Br)cc([N+](=O)[O-])cc1[N+](=O)[O-] | 10.8%
67 | COc1ccc(C(=O)NCc2ccc3c(c2)cc(C)n3C)cc1OC | 6.09%
68 | COc1ccc(C(CC(=O)c2ccccc2)S(=O)(=O)c2ccccc2)cc1 (centres unmarked) | 10.8%
69 | CCn1c(SCC(=O)Nc2ccc(NC(C)=O)cc2)nc2c1c(=O)n(C)c(=O)n2C | 13.2%
70 | CC1=NN(c2ccccc2)C(=O)C1C(=O)c1ccc([N+](=O)[O-])cc1 (centres unmarked) | 6.37%
71 | CCOc1ccc(N(CC(=O)Nc2ccc(OC)cc2)S(=O)(=O)c2c(C)[nH]c(=O)[nH]c2=O)cc1 | 6.52%
72 | O=C(NN1C(=O)NC2(CCCCC2)C1=O)c1cc(F)cc(F)c1 | 7.19%
73 | COc1cc(CNC(C)(C)CO)ccc1OCC(=O)Nc1ccc(Br)cc1 | 1.2%
74 | CC(C(=O)NCCS(=O)(=O)c1ccc(Cl)cc1)S(=O)(=O)c1ccc(Cl)cc1 (centres unmarked) | 1.23%
75 | Cn1c(Sc2ccc(Br)cc2)c(C=O)c2ccccc21 | 9.83%
76 | CCOc1cc(C)c(C(C)C)cc1S(=O)(=O)N1CCN(C)CC1 | -6.68%
77 | Cc1ccc(-c2cn3cccnc3n2)cc1NC(=O)c1c(-c2ccccc2Cl)noc1C | 12.7%
78 | CCN(CC)C(=O)Cn1cnc2sc(C(=O)N3CCN(Cc4ccc5c(c4)OCO5)CC3)c(C)c2c1=O | 15.1%
79 | CNC(=O)c1sc(N2N=C3/C(=C/c4ccccc4)CCCC3C2c2ccccc2)nc1C (centres unmarked) | 13.6%
80 | CC(C)OC(=O)CC12CN(C)CC(CC(=O)OC(C)C)(CN(C)C1)C2=O | 6.62%
81 | CCN1C(=O)[C@H]2[C@@H](c3ccc(-c4ccccc4)cc3)N[C@@](CC(C)C)(C(=O)OC)[C@H]2C1=O.O=C(O)C(F)(F)F | 14.5%
82 | C/C=C(\C)C(=O)N[C@@H](c1ccccc1)[C@@H](O)C(=O)O[C@H]1C[C@@]2(O)[C@@H](OC(=O)c3ccccc3)C3[C@](C)(C(=O)[C@H](OC(C)=O)C(=C1C)C2(C)C)[C@H](O)C[C@H]1OC[C@@]31OC(C)=O (some centres unmarked) | 16.7%
83 | COc1ccc(OC)c(CN2CCN(C(=O)c3cccc4ccccc34)CC2)c1.O=C(O)C(=O)O | 3.4%
